± gives the standard deviation of the averaged measurements. The list shows a part of the results.

The values below come from the supplement of paper PMC11417369.

In the assay the test system is PfAP2-I AP2 domain 3 (GST-tagged). As to the kind of experiment: gcPBM binding intensity (ln(normalized median fluorescence intensity)); higher = stronger DNA binding. Summed up:
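After 1 h on an Agilent 4 × 180k array of primer-extended double-stranded 36-bp intergenic genomic probes and negative controls, bound GST-tagged P. falciparum DNA-binding domains were detected with Alexa488 anti-GST antibody and scanned at 488 nm. The domains had been expressed in E. coli, and binding took place in 1× PBS with 1% milk, 0.2 mg/ml BSA, 0.5% salmon testes DNA and 0.03% Triton X-100. Binding intensity is the highest Masliner-normalised natural-log median intensity across replicate spots of either probe orientation.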
In the case of “TTCGTCTTTTTTCTCACACACCCTTTTTATTAAAAG [CACACA_site7225]”, the “gcPBM binding intensity (ln)” value came to 8.34 ± 0.47.

“AATAATATACCTCTTGTGCACATATTAAAAGTTCAT [GTGCAC_site9536]”: the “gcPBM binding intensity (ln)” value came to 10.3 ± 0.62.

Regarding “ATAATACAAAACACAAGTACATAAATTAAAAAGATG [XGTACX_site7839]”, the “gcPBM binding intensity (ln)” value is 8.15 ± 0.48.

For the sequence “AAAGAATACATATATTGTACATATATATATACCGTT [XGTACX_site6250]”, the “gcPBM binding intensity (ln)” value is 7.86 ± 0.75.

Consider AGAATTAAAATAAAGGTGCATTTTTTTGTTTCATGT, for which the “gcPBM binding intensity (ln)” value came out at 9.94 ± 0.23.

Regarding “AGTTATTTTATAGAATATGAATAATTTTACTTTTCA [XGTACX_negctrl_site403]”, the “gcPBM binding intensity (ln)” value was 7.21 ± 0.53.

For the sequence “TTCATTCATTTTATTACACACAAAAAAAAAAAAAAA [CACACA_site3680]”, the “gcPBM binding intensity (ln)” value amounted to 8.05 ± 0.35.

Take “AATTTCATTTTACTTATCTAATATTTATAATCTTTT [CACACA_negctrl_site636]”: the “gcPBM binding intensity (ln)” value turned out to be 7.71 ± 0.56.

Regarding “AAAAAAAAAGGTACTACACACTATTCTCAATAGAAA [CACACA_site6193]”, the “gcPBM binding intensity (ln)” value was 7.67 ± 0.52.

Turning to “AAAAAAAAAAAAAAAAGTACATATAATAAATAATGA [XGTACX_site7931]”, the “gcPBM binding intensity (ln)” value is 8.62 ± 0.45.

For the sequence “TATATCTTAATATTTACACACATGCGCACCCATAAA [CACACA_site5349]”, the “gcPBM binding intensity (ln)” value is 9.65 ± 0.41.

For the sequence “AATCTTTGTAATAAAAGTACATTAATTTTATTAATA [XGTACX_site8325]”, the “gcPBM binding intensity (ln)” value came out at 7.67 ± 0.092.

Turning to “ACACATACAACGTGGTGTACAAATAATTATAATCAA [XGTACX_site2287]”, the “gcPBM binding intensity (ln)” value stood at 7.93 ± 0.63.

With “TTTTAAATACTTTATTGTACATTATATATATATATA [XGTACX_site7021]”, the “gcPBM binding intensity (ln)” value turned out to be 8.88 ± 0.042.

Take “TAAGTATATATATTTACACACATTTGTTTTTTTTTA [CACACA_site3784]”: the “gcPBM binding intensity (ln)” value was 7.57 ± 0.6.

Turning to “AATTATGTGTGTCAATGTACACGATTTACATAATAT [XGTACX_site5150]”, the “gcPBM binding intensity (ln)” value came to 7.98 ± 0.55.

Turning to “TGAAAAATATAAGGTTGTACTTACATCGGGAATAAT [XGTACX_site4701]”, the “gcPBM binding intensity (ln)” value was 8.05 ± 0.55.

Turning to “AATATATGGTTTCTTGATATTAAATTCAATTTAATG [CACACA_negctrl_site69]”, the “gcPBM binding intensity (ln)” value stood at 7.51 ± 0.59.

With “ATAAATGAACAAGTGGCACACACACCGTATAACTAA [CACACA_site9047]”, the “gcPBM binding intensity (ln)” value was determined as 8.19 ± 0.52.

With “ATCCGTGGGTGAAATACACACATGATAATGTGAATG [CACACA_site4662]”, the “gcPBM binding intensity (ln)” value turned out to be 7.54 ± 0.5.

As for “ATTTGTATATACATATGTACACATGTAGGCTCATAA [XGTACX_site1709]”, the “gcPBM binding intensity (ln)” value stood at 7.87 ± 0.42.

For the sequence “TTTCGTAAACTTTATGCACACACATATACATATTTC [CACACA_site8146]”, the “gcPBM binding intensity (ln)” value stood at 10 ± 0.28.

As to “TATATTAAAATAATCACACACATCAATTAATGGTAA [CACACA_site1234]”, the “gcPBM binding intensity (ln)” value came to 7.43 ± 0.34.

In the case of TTTGAATACTGAATGGTGCAAATTGTTCTCCCCATG, the “gcPBM binding intensity (ln)” value came to 10.9 ± 0.61.

Take “AGTATAACTTTTGCGCGTACACACATTTATCCTCTT [XGTACX_site429]”: the “gcPBM binding intensity (ln)” value is 8.35 ± 0.52.

“TACAAATGCGTATGTCAATATATGGAGAAATAAATA [TGCATGCA_negctrl_site290]”: the “gcPBM binding intensity (ln)” value is 7.73 ± 0.49.

“TGTATATGGTTTGTGCAAAAATTTATTAATGTGTAA [TGCATGCA_negctrl_site374]”: the “gcPBM binding intensity (ln)” value worked out at 8.8 ± 0.35.

“TATAATAATATTTACACACGCATATGTTATATATAT [CACACA_site1477]”: the “gcPBM binding intensity (ln)” value amounted to 8.35 ± 0.85.

For “TATCTTTTTTTTAATACACACAAATATATGAAAGTA [CACACA_site4161]”, the “gcPBM binding intensity (ln)” value was determined as 7.99 ± 0.33.

“GTTATAATTGAACTAGTGCATAAATATATTTTAATT [GTGCAC_site9851]”: the “gcPBM binding intensity (ln)” value amounted to 11.1 ± 0.45.

With “AATTCTGGCAAAATAACACACACATATATTTTATAT [CACACA_site9064]”, the “gcPBM binding intensity (ln)” value was found to be 7.89 ± 0.59.

“TTTTTTTTTACTAACTGTACTAAAGAAAAAAAAGGG [XGTACX_site3519]”: the “gcPBM binding intensity (ln)” value was found to be 8.02 ± 0.18.

As to “ATAAAGGAATTTTATACACACAACATATATATATAT [CACACA_site2861]”, the “gcPBM binding intensity (ln)” value was 9.45 ± 0.6.

Regarding “ATATAAACACTGAATGCATGCACATATATATATATA [TGCATGCA_site940]”, the “gcPBM binding intensity (ln)” value amounted to 9.945 ± 0.007.

“GGGGGGGGAGGGTGAATACACACGTAATAATCATAA [CACACA_site1716]”: the “gcPBM binding intensity (ln)” value amounted to 10.7 ± 0.51.

“CGTATTATTATATAAACACACAAGGGGGCATGTATA [CACACA_site745]”: the “gcPBM binding intensity (ln)” value is 9.18 ± 0.12.

In the case of “ATGTGTATATGTGTGGGTACTTAATTTTTTTCTTTA [XGTACX_site5351]”, the “gcPBM binding intensity (ln)” value was 8.31 ± 0.48.

Take “AGGATATATATATTCACACACACATGGAAATATATA [CACACA_site383]”: the “gcPBM binding intensity (ln)” value was 7.58 ± 0.52.

Consider “ATATATATTTTATATTGTACTTATTATTTTTAGGGC [XGTACX_site723]”, for which the “gcPBM binding intensity (ln)” value came to 7.71 ± 0.29.

As to “TATGAATATCTATACACACACATATAAATACACGCT [CACACA_site6853]”, the “gcPBM binding intensity (ln)” value was 7.83 ± 0.52.

As to “TAGATGTAAGTACATACACACATATATAAATAAATA [CACACA_site8528]”, the “gcPBM binding intensity (ln)” value is 8 ± 0.16.

Regarding “CTAATTGTTATTTTGTGTACTTATCATTCGAAATAT [XGTACX_site7963]”, the “gcPBM binding intensity (ln)” value was found to be 8.01 ± 0.37.

“AAAAAACAAATAAGTAAACACACATATATAATATAT [CACACA_site8830]”: the “gcPBM binding intensity (ln)” value stood at 7.55 ± 0.55.

Turning to “ATATATATTTTAATTACACACAAAAAAAAAAAAAAA [CACACA_site4778]”, the “gcPBM binding intensity (ln)” value turned out to be 8.06 ± 0.47.
